For 31 molecules, binding signal results are on record in publication PMC9911399, “Two distinct binding modes provide the RNA-binding protein RbFox with extraordinary sequence specificity”.

T1: RBFOX1 RRM RbFoxmut (Fox-RRM*) (Homo sapiens, UniProt Q9NWB1 109-208, R118D;E147R;N151S;E152T)
T1 sequence: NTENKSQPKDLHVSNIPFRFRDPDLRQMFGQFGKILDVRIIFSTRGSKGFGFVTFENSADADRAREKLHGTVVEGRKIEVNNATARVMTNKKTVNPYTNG

B1: AAUCAAC (DNA:RNA)
RNA: GGGAGACCGGAAUUCAGAUUGUCCAAUCAACUUAAAUCCCGUCGUAGCCACCA
DNA 1: CAATCTGAATTCCGGTCTCCC
DNA 2: TGGTGGCTACGACGGGATT
B2: GUCGGCC (DNA:RNA)
RNA: B1 RNA with A25G, A26U, U27C, C28G, A29G, A30C
DNA 1: CAATCTGAATTCCGGTCTCCC
DNA 2: TGGTGGCTACGACGGGATT
B3: UACAAUG (DNA:RNA)
RNA: B1 RNA with A25U, U27C, C28A, A30U, C31G
DNA 1: CAATCTGAATTCCGGTCTCCC
DNA 2: TGGTGGCTACGACGGGATT
B4: GCAAUCC (DNA:RNA)
RNA: B1 RNA with A25G, A26C, U27A, C28A, A29U, A30C
DNA 1: CAATCTGAATTCCGGTCTCCC
DNA 2: TGGTGGCTACGACGGGATT
B5: CUAGUAG (DNA:RNA)
RNA: B1 RNA with A25C, A26U, U27A, C28G, A29U, C31G
DNA 1: CAATCTGAATTCCGGTCTCCC
DNA 2: TGGTGGCTACGACGGGATT
B6: CCUCGUC (DNA:RNA)
RNA: B1 RNA with A25C, A26C, A29G, A30U
DNA 1: CAATCTGAATTCCGGTCTCCC
DNA 2: TGGTGGCTACGACGGGATT
B7: ACCACUU (DNA:RNA)
RNA: B1 RNA with A26C, U27C, C28A, A29C, A30U, C31U
DNA 1: CAATCTGAATTCCGGTCTCCC
DNA 2: TGGTGGCTACGACGGGATT
B8: AAGCUGC (DNA:RNA)
RNA: B1 RNA with U27G, A29U, A30G
DNA 1: CAATCTGAATTCCGGTCTCCC
DNA 2: TGGTGGCTACGACGGGATT
B9: AAGCUUG (DNA:RNA)
RNA: B1 RNA with U27G, A29U, A30U, C31G
DNA 1: CAATCTGAATTCCGGTCTCCC
DNA 2: TGGTGGCTACGACGGGATT
B10: UCCAUGU (DNA:RNA)
RNA: GGGAGACCGGAAUUCAGAUUGUCCUCCAUGUUUAAAUCCCGUCGUAGCCACCA
DNA 1: CAATCTGAATTCCGGTCTCCC
DNA 2: TGGTGGCTACGACGGGATT
B11: AAAUAGA (DNA:RNA)
RNA: B1 RNA with U27A, C28U, A30G, C31A
DNA 1: CAATCTGAATTCCGGTCTCCC
DNA 2: TGGTGGCTACGACGGGATT
B12: AGCCGUU (DNA:RNA)
RNA: B1 RNA with A26G, U27C, A29G, A30U, C31U
DNA 1: CAATCTGAATTCCGGTCTCCC
DNA 2: TGGTGGCTACGACGGGATT
B13: UUAGGAC (DNA:RNA)
RNA: B1 RNA with A25U, A26U, U27A, C28G, A29G
DNA 1: CAATCTGAATTCCGGTCTCCC
DNA 2: TGGTGGCTACGACGGGATT
B14: ACCAUCG (DNA:RNA)
RNA: B10 RNA with U25A, G30C, U31G
DNA 1: CAATCTGAATTCCGGTCTCCC
DNA 2: TGGTGGCTACGACGGGATT
B15: ACAUCCG (DNA:RNA)
RNA: B1 RNA with A26C, U27A, C28U, A29C, A30C, C31G
DNA 1: CAATCTGAATTCCGGTCTCCC
DNA 2: TGGTGGCTACGACGGGATT
B16: CCGGGAC (DNA:RNA)
RNA: B1 RNA with A25C, A26C, U27G, C28G, A29G
DNA 1: CAATCTGAATTCCGGTCTCCC
DNA 2: TGGTGGCTACGACGGGATT
B17: GCUCCAA (DNA:RNA)
RNA: B1 RNA with A25G, A26C, A29C, C31A
DNA 1: CAATCTGAATTCCGGTCTCCC
DNA 2: TGGTGGCTACGACGGGATT
B18: CCUCUUA (DNA:RNA)
RNA: B1 RNA with A25C, A26C, A29U, A30U, C31A
DNA 1: CAATCTGAATTCCGGTCTCCC
DNA 2: TGGTGGCTACGACGGGATT
B19: AUGCUCU (DNA:RNA)
RNA: B1 RNA with A26U, U27G, A29U, A30C, C31U
DNA 1: CAATCTGAATTCCGGTCTCCC
DNA 2: TGGTGGCTACGACGGGATT
B20: CUGUCCC (DNA:RNA)
RNA: B1 RNA with A25C, A26U, U27G, C28U, A29C, A30C
DNA 1: CAATCTGAATTCCGGTCTCCC
DNA 2: TGGTGGCTACGACGGGATT
B21: CUAAGUA (DNA:RNA)
RNA: B10 RNA with U25C, C26U, C27A, U29G, G30U, U31A
DNA 1: CAATCTGAATTCCGGTCTCCC
DNA 2: TGGTGGCTACGACGGGATT
B22: ACCCCGC (DNA:RNA)
RNA: B1 RNA with A26C, U27C, A29C, A30G
DNA 1: CAATCTGAATTCCGGTCTCCC
DNA 2: TGGTGGCTACGACGGGATT
B23: GUAAGCC (DNA:RNA)
RNA: B1 RNA with A25G, A26U, U27A, C28A, A29G, A30C
DNA 1: CAATCTGAATTCCGGTCTCCC
DNA 2: TGGTGGCTACGACGGGATT
B24: GCGGUCU (DNA:RNA)
RNA: B10 RNA with U25G, C27G, A28G, G30C
DNA 1: CAATCTGAATTCCGGTCTCCC
DNA 2: TGGTGGCTACGACGGGATT
B25: UUUCUCU (DNA:RNA)
RNA: B10 RNA with C26U, C27U, A28C, G30C
DNA 1: CAATCTGAATTCCGGTCTCCC
DNA 2: TGGTGGCTACGACGGGATT
B26: UGAAUGG (DNA:RNA)
RNA: B10 RNA with C26G, C27A, U31G
DNA 1: CAATCTGAATTCCGGTCTCCC
DNA 2: TGGTGGCTACGACGGGATT
B27: GGUACAG (DNA:RNA)
RNA: B1 RNA with A25G, A26G, C28A, A29C, C31G
DNA 1: CAATCTGAATTCCGGTCTCCC
DNA 2: TGGTGGCTACGACGGGATT
B28: CUAAUAA (DNA:RNA)
RNA: B10 RNA with U25C, C26U, C27A, G30A, U31A
DNA 1: CAATCTGAATTCCGGTCTCCC
DNA 2: TGGTGGCTACGACGGGATT
B29: AGCCGCA (DNA:RNA)
RNA: B1 RNA with A26G, U27C, A29G, A30C, C31A
DNA 1: CAATCTGAATTCCGGTCTCCC
DNA 2: TGGTGGCTACGACGGGATT
B30: UUCCGCU (DNA:RNA)
RNA: B10 RNA with C26U, A28C, U29G, G30C
DNA 1: CAATCTGAATTCCGGTCTCCC
DNA 2: TGGTGGCTACGACGGGATT
B31: CCCGUAC (DNA:RNA)
RNA: B10 RNA with U25C, A28G, G30A, U31C
DNA 1: CAATCTGAATTCCGGTCTCCC
DNA 2: TGGTGGCTACGACGGGATT

Residue numbers refer to the chain shown, from its start. This is one part of the list.

In this test the target is T1, RBFOX1 RRM RbFoxmut (Fox-RRM*). In words: EMSA; HiTS-Eq, 1 nM pool, 10 min; buffer printed only for the single-RNA assays: 10 mM Tris pH 7.5, 150 mM NaCl, 3.4 mM EDTA, 0.001% NP-40, 30 C. The note with it: tags: His6 N-terminal (pET28a); label: 5' 32P. Put shortly: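 Relative association constants, normalised to the cognate motif, were derived by comparing read counts of each RNA species with those of the control reaction. The RNA sequenced was the free fraction, separated by 8% native PAGE after a 10 min equilibration in 50 µL of 1 nM 5′-radiolabelled RNA (7 randomized nucleotides) with increasing concentrations of purified wild-type or mutant RbFox RRM.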
For orientation: Mobility shift assays separate free from complexed probe on a gel.
Consider B1, for which the binding signal was 0.0524 KA relative to UGCAUGU.
For the molecule B2, the binding signal is 0.214 KA relative to UGCAUGU.
The same measure for B3: 0.0464 KA relative to UGCAUGU; for B4: 0.0263 KA relative to UGCAUGU; for B5: 0.129 KA relative to UGCAUGU.
With B6 the figure was 0.0873 KA relative to UGCAUGU; with B7, 0.0717 KA relative to UGCAUGU.
The same measure for B8: 0.0705 KA relative to UGCAUGU; for B9: 0.202 KA relative to UGCAUGU.
On to B10, for which the binding signal is 0.152 KA relative to UGCAUGU.
Turning to B11, the binding signal was 0.0945 KA relative to UGCAUGU.
The same measure for B12: 0.0814 KA relative to UGCAUGU.
With B13 the figure was 0.0674 KA relative to UGCAUGU.
With B14, the binding signal was 0.0949 KA relative to UGCAUGU.
With B15 the figure was 0.121 KA relative to UGCAUGU; with B16, 0.086 KA relative to UGCAUGU; with B17, 0.0756 KA relative to UGCAUGU.
Turning to B18, the binding signal is 0.102 KA relative to UGCAUGU.
With B19 the figure was 0.0844 KA relative to UGCAUGU; with B20, 0.0693 KA relative to UGCAUGU; with B21, 0.137 KA relative to UGCAUGU.
With B22 the figure was 0.0801 KA relative to UGCAUGU; with B23, 0.1 KA relative to UGCAUGU.
With B24 the figure was 0.0966 KA relative to UGCAUGU; with B25, 0.0757 KA relative to UGCAUGU; with B26, 0.339 KA relative to UGCAUGU.
Regarding B27, the binding signal is 0.0846 KA relative to UGCAUGU.
With B28 the figure was 0.0927 KA relative to UGCAUGU; with B29, 0.121 KA relative to UGCAUGU; with B30, 0.0662 KA relative to UGCAUGU.
For the molecule B31, the binding signal is 0.078 KA relative to UGCAUGU.
